Experimental data published in PubChem BioAssay AID686979 (National Center for Advancing Translational Sciences (NCATS), 2013).
Among all 420,000 compounds or so, about 50,000 (12%) were called active. The shares of active, inactive and inconclusive entries below differ from those in the screen. Calls follow the shape of the dose curve; as a rule, active = well fitted inhibition curve with a large enough effect; inconclusive = small, poorly fitted or top-dose-only effect; inactive = flat fitted curve, though single readings scatter. Potencies of inconclusive entries are left out as doubtful fits.

experiment: qHTS for Inhibitors of human tyrosyl-DNA phosphodiesterase 1 (TDP1): qHTS in cells in presence of CPT; details: chicken DT40 Tdp1-/-;hTDP1 cells + 20 nM CPT, ATP luminescence, 48 h; activity change, negative = growth inhibition: at 46.2 µM (top of the series) unless noted; also: nearly all actives have a fitted effect of over 55% in size
Method in brief: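 Chicken DT40 Tdp1-/- cells complemented with human TDP1, 400 cells/well, exposed to compounds plus 20 nM camptothecin for at least 48 h at 37 C; viability read as ATP content by CellTiter-Glo luminescence.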
% is scaled to controls: 0 for no effect and ±100 for the full control effect; potency is read from the fitted curve at half-maximal effect; tags tell the direction and shape of the fitted curve.

| Structure (SMILES) | Potency | activity change, negative = growth inhibition |
| --- | --- | --- |
| COCCN1Cc2cc3cc(C)ccc3nc2SC1=Nc1cccc(OC)c1 | inconclusive [inhibitor, single point] | – |
| COc1cccc(NC(=O)COC(=O)C2CC(=O)N(c3ccc(C)cc3)C2)c1 (stereo unspecified) | – | inactive: 9.11% |
| Cc1c(NC(=O)C(C)OC(=O)/C=C/c2ccc3c(c2)OCO3)c(=O)n(-c2ccccc2)n1C (stereo unspecified) | – | inactive: 17.8% |
| CC(C)C1OC(c2cccc(NC(=O)c3cccs3)c2)OCC1(C)C (stereo unspecified) | inconclusive [inhibitor, single point] | – |
| CCCN(C(=O)COC(=O)CNC(=O)c1ccc2ccccc2c1)c1c(N)n(Cc2ccccc2)c(=O)[nH]c1=O | – | inactive: 19.8% |
| COc1ccc2[nH]c(=O)c(CN(C)C(=O)c3cccs3)cc2c1 | – | inactive: -19.7% |
| CCN(CC)S(=O)(=O)c1ccc2[nH]c(=O)cc(C(=O)Nc3ccc(C)c(S(=O)(=O)N(CC)CC)c3)c2c1 | inconclusive [inhibitor, single point] | – |
| Cc1ccc(-c2nn(-c3ccccc3)cc2CN(Cc2ccccc2)C(=O)c2ccco2)o1 | inconclusive [inhibitor, single point] | – |
| COc1cccc(C(C(=O)NC(C)(C)C)N(CCc2ccccc2)C(=O)CCC(=O)Nc2cc(C)on2)c1OC (stereo unspecified) | inconclusive [inhibitor, single point] | – |
| Cc1ccc(S(=O)(=O)/N=C2\C=C(Nc3cccc(C(=O)O)c3)C(=O)c3ccccc32)cc1 | inconclusive [inhibitor, single point] | – |
| C#CC(C)(CC)NC(=O)Cn1nnc(-c2ccc(OCc3c(F)cccc3Cl)cc2)n1 (stereo unspecified) | inconclusive [inhibitor, single point] | – |
| COc1ccc(C(=O)NC2CCN(CC(=O)NCc3ccccc3)CC2)cc1 | – | inactive: -7.02% |
| C#CCNC(=O)C1=C[C@H](c2coc3ccccc3c2=O)C[C@H](OCc2ccc(CO)cc2)O1 | inconclusive [inhibitor, single point] | – |
| O=C(NCC1CCCO1)C(=Cc1cccc([N+](=O)[O-])c1)C(=O)NCC1CCCO1 (stereo unspecified) | inconclusive [inhibitor, single point] | – |
| COc1cc2oc(=O)cc(-c3cccc(-c4ccc(C(F)(F)F)cc4)c3)c2c(OC)c1OC | active: 23.1 µM | – |
| Oc1ccc(Br)cc1/C=N/n1c(C2CCCCC2)n[nH]c1=S | inconclusive [inhibitor, single point] | – |
| C[C@H]1CN=C(Nc2ccccc2)N1CCCC1CCCCC1 | inconclusive [inhibitor, single point] | – |
| O=C(CSc1ncc2c(n1)-c1ccccc1N(Cc1ccc(F)cc1)S2(=O)=O)NCCc1ccccc1 | – | inconclusive: -31.1% [inhibitor] |
| COc1ccc(N(CC(=O)Nc2ccc(C)c(C)c2)S(=O)(=O)c2c(C)n[nH]c2C)cc1 | inconclusive [inhibitor, partial curve, poor fit] | – |
| CN(C(=O)c1cccc(NC(=O)Cc2ccc(NC(=O)C3CCCN(C(=O)C4CCCCC4)C3)cc2)c1)C1CCCCC1 (stereo unspecified) | inconclusive [inhibitor, single point] | – |
| Cc1ccc(C(=O)OCC(=O)NN2C(=O)NC3(CCC(C)CC3)C2=O)cc1 (stereo unspecified) | – | inconclusive: -34% [inhibitor] |
| COC(=O)[C@]12CCCCC=C1N(Cc1ccc(Cl)cc1Cl)C(=O)[C@H](CC(=O)NCc1cccc(C(F)(F)F)c1)C2 | inconclusive [inhibitor, single point] | – |

| Structure (SMILES) | Potency | activity change, negative = growth inhibition |
| --- | --- | --- |
| Cc1ccc(-n2c(=O)c3ccc(C(=O)NCc4ccccc4Cl)cc3n(CC(=O)Nc3ccc(C)cc3C)c2=O)cc1 | inconclusive [inhibitor, single point] | – |
| COc1ccccc1C(=O)Nc1nc(-c2ccc3c(c2)OCCO3)cs1 | inconclusive [inhibitor, single point] | – |
| CC(=O)Nc1cc(C(=O)N(C)Cc2ccco2)ccc1Sc1ccc(Cl)cc1 | inconclusive [inhibitor, single point] | – |
| CCOC(=O)N1CCC(N(CCN(C)C)C(=S)Nc2cccc(C)c2)CC1 | – | inactive: 7.58% |
| O=C(N/N=C/c1ccc(OCc2ccccc2)cc1)c1ccc(O)cc1 | – | inactive: -0.604% |
| COc1ccccc1NC(=O)Cn1cc(C(=O)C(=O)N2CCOCC2)c2ccccc21 | inconclusive [inhibitor, single point] | – |
| CC[C@H]1C(=O)[C@@H](Cc2ccccc2)[C@@H]2CCN3C(=O)CCC[C@H]1[C@H]23 | inactive | – |
| Cc1ccc(Sc2cc(N3CCOCC3)nc(-c3ccccc3)n2)cc1 | inconclusive [inhibitor, single point] | – |
| O=C1OC(/C(=C\Nc2ccccc2)[N+](=O)[O-])c2ccccc21 (stereo unspecified) | – | inactive: -6.31% |
| CCOC(=O)c1cccc(NC(=O)[C@H](CSCc2ccccc2)N2Cc3ccccc3C2=O)c1 | inconclusive [inhibitor, single point] | – |
| Cc1ccc(Nc2cc(C)nc3nncn23)c(C)c1 | inconclusive [inhibitor, partial curve, poor fit] | – |
| O=C(CN1C(=O)c2ccccc2C1=O)OCC(=O)c1ccccc1 | inconclusive [inhibitor, single point] | – |
| COc1ccc(Cn2c(=O)[nH]c3cc(C(=O)N4CCN(C(=O)c5ccco5)CC4)ccc3c2=O)cc1 | active: 11.2 µM | – |
| O=C(COC(=O)c1cccc(-n2cnnn2)c1)Nc1c(Cl)cccc1C(F)(F)F | – | inconclusive: -4.05% [inhibitor] |
| O=C(NCc1cccnc1)C1CCCN(Cc2cnn(-c3ccccc3)c2-n2cccc2)C1 (stereo unspecified) | – | inactive: -26% |
| Clc1cc2nc(-c3cccnc3Cl)[nH]c2cc1Cl | – | inactive: -16.8% |
| COc1c2c(c3c(c1OC)c(=O)c1ccccc1n3C)OCO2 | inconclusive [inhibitor, single point] | – |
| CC1=CC(c2ccc(Cl)cc2)n2nc(NC(=O)CCC(=O)O)nc2N1 (stereo unspecified) | – | inactive: 4.13% |
| CCc1ccc(C(=O)OCC(=O)N(CC)c2c(N)n(Cc3ccccc3)c(=O)[nH]c2=O)cc1 | – | inactive: -5.14% |
| O=C(C1CCC(Cn2c(=O)c3sccc3n(Cc3ccc(F)cc3)c2=O)CC1)N1CCOCC1 (stereo unspecified) | active: 23.1 µM | – |
| O=C(CP(=O)(c1ccccc1)c1ccccc1)Nc1nc2ccc(Cl)cc2s1 | inconclusive [inhibitor, single point] | – |
| CC(=O)N1c2ccc(S(=O)(=O)N3CCC(C(=O)Nc4cccc(C)c4C)CC3)cc2CC1C (stereo unspecified) | inconclusive [inhibitor, single point] | – |

| Structure (SMILES) | Potency | activity change, negative = growth inhibition |
| --- | --- | --- |
| CCCCNc1c(-c2ccc(-c3ccc(C(C)=O)cc3)c(OC)c2)nc2cc(C)ccn12 | active: 18.4 µM | – |
| CCOc1cc(/C=C2\CN(CC)C/C(=C\c3ccc(O)c(OCC)c3)C2=O)ccc1O | active: 5.17 µM | – |
| O=c1[nH]c(C2CCCN(S(=O)(=O)c3ccccc3)C2)nc2c1nnn2Cc1ccc(OC(F)(F)F)cc1 (stereo unspecified) | inconclusive [inhibitor, partial curve] | – |
| COc1ccc2c(c1)-c1nc(NC(=O)c3cc(OC)c(OC)c(OC)c3)sc1CC2 | inconclusive [inhibitor, single point] | – |
| COc1ccc(C(=O)NC(=S)Nc2ccccc2N2CCOCC2)cc1[N+](=O)[O-] | active: 16.4 µM | – |
| COc1cccc(NC(=O)CN2C(=O)COc3ccc(S(=O)(=O)N4CCC(C)CC4)cc32)c1 | inconclusive [inhibitor, single point] | – |
| CN1C(=O)C2(c3ccccc31)N(c1ccc(Br)cc1)C(=O)CS2(=O)=O (stereo unspecified) | – | inactive: -8.53% |
| CC(=O)c1cccc(NC(=O)CN2C(=O)NC3(CCCCCCC3)C2=O)c1 | inconclusive [inhibitor, partial curve] | – |
| Cc1ccccc1OCCNC(=O)/C=C/c1ccccc1 | – | inconclusive: -30.7% [inhibitor] |
| CC(C)CCn1c(SCc2cccc(F)c2)nc2ccsc2c1=O | inconclusive [inhibitor, single point] | – |
| CC1CCc2nc(NC(=O)CN3CCN(c4ccc(F)cc4)CC3)sc2C1 (stereo unspecified) | inconclusive [inhibitor, single point] | – |
| Cn1cc(-c2cc3n(n2)CCC(=O)N3CCCC(=O)NCc2ccccc2Cl)c2ccccc21 | active: 16.4 µM | – |
| CCCN(CCC)CCNC(=O)c1cc2c(C)nc3ccccc3c2o1 | inconclusive [inhibitor, partial curve] | – |
| CN1C(=O)c2[nH]nc(-c3ccc(F)cc3)c2C1c1cccc(O)c1 (stereo unspecified) | inconclusive [inhibitor, single point] | – |
| CC(C)c1ccc(NC(=O)c2sccc2-n2cccc2)cc1 | inconclusive [inhibitor, single point] | – |
| CC(C)CN(C(=O)COC(=O)c1ccc(Cl)c(N)c1)c1c(N)n(Cc2ccccc2)c(=O)[nH]c1=O | inconclusive [inhibitor, single point] | – |
| COc1ccc(-c2cc(C(=O)NCC3CCCO3)c3cc(C(C)C)ccc3n2)cc1 (stereo unspecified) | active: 16.4 µM | – |
| CCN(CC(=O)Nc1ccccc1C(F)(F)F)C(=O)CCOc1ccccc1C | – | inactive: -36.2% |
| CNc1sc(C(=O)c2ccccc2F)c(N)c1-c1nc2ccccc2s1 | inconclusive [inhibitor, single point] | – |
| CCc1ccc(S(=O)(=O)N2CCN(C(=O)C3CCN(C(C)=O)CC3)CC2)cc1 | – | inactive: -5.84% |
| Cc1nc(C)c(C(=O)NNC(=O)Nc2ccc(Cl)cc2)s1 | – | inactive: -3.99% |
| S=C(NCCc1ccccc1)NCC1CCCO1 (stereo unspecified) | inconclusive [inhibitor, single point] | – |
